Measurements as given in PubChem BioAssay (NCATS).
Where “and” joins values, the source holds several entries; their conditions need not be identical. Equal values may be shown once. The shares of active, inactive and inconclusive entries below differ from those in the screen. Where a call stands in place of a potency, no number is given. For some assays here: Potencies of inconclusive entries are doubtful fits and often do not repeat. Calls of active or inactive are those of the source. Unless noted, calls come from the whole dose curve; as a rule, active = well fitted curve in the direction sought with a large enough effect; inconclusive = small, poorly fitted or top-dose-only effect, or another doubt; inactive = no such curve, though single readings can be large; an effect the other way counts as inactive or inconclusive.

How the values were obtained:
[1] = biological target: Glucocorticoid receptor (Homo sapiens) (UniProt P04150); experiment: GR-EFC Redistribution (AID 451; calls by dose curve; note: potency is the fitted concentration of half-maximal effect); details: CHO-K1 GR-EFC translocation, beta-gal luminescence, 2 h
In short: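 CHO-K1 cells expressing nuclear EA and GR-ED fragments of b-gal; compounds titrated up to 46 uM final, 2 h at 37 C. GR nuclear translocation read as complemented b-gal luminescence after 1 h RT detection.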

[2] = biological target: Mitogen-activated protein kinase 10 (Mus musculus) (UniProt Q61831); experiment: JNK3 AlphaScreen Assay (AID 530; active = well fitted curve in either direction with a large enough effect, not every such curve was filed as active; inconclusive = small, poorly fitted or top-dose-only effect, or another doubt;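 note: kinase came from lysate of stimulated human HepG2 cells; signal reports phosphorylation of biotinylated GST-cJun 1-79 at Ser73 with 10 µM ATP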; note: potency is the fitted concentration of half-maximal effect); details: JNK3 lysate, c-Jun phosphorylation; activity change, negative = inhibition: at 57.1 µM (top of the series)
In short: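 Activity was read by AlphaScreen after JNK3-containing HepG2 lysate (cytokine pre-activated) phosphorylated biotinylated GST-cJun with 10 uM ATP at room temperature. Phospho-Ser73 cJun antibody with Protein-A acceptor beads provided detection.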

[3] = qHTS Assay for Identification of Small Molecule Antagonists for Thrombopoietin (TPO) Signaling Pathway (AID 918); details: TPO-dependent cell signaling reporter, antagonist mode; activity change, negative = inhibition: at 38.5 µM (top of the series); note: nearly all actives have a fitted effect of over 60% in size
In short: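 Inhibition read as reduced luciferase luminescence after 24 h at 37 C in IL-3-deprived Ba/F3 cells carrying human TPO receptor and GPIIb-promoter reporter, stimulated with 26 pM TPO (final, its EC50) alongside compound.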

[4] = biological target: Muscarinic acetylcholine receptor M1 (Rattus norvegicus) (UniProt P08482); experiment: qHTS Assay for Antagonists of Acetylcholine Muscarinic M1 Receptor: Kinetic Measurement of Intracellular Calcium Response (AID 943); details: M1-expressing cells, kinetic intracellular calcium fluorescence; series mostly up to 35.3 µM; note: potency is the fitted concentration of half-maximal effect; nearly all actives have a fitted effect of over 75% in size
In short: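 Antagonism measured as reduction of carbachol-evoked (EC80, 100 nM final) calcium flux in rat M1-CHO cells after 10 min compound exposure. Fluo-4 signal read kinetically; ratio of maximal to basal fluorescence.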

[5] = biological target: Muscarinic acetylcholine receptor M1 (Rattus norvegicus) (UniProt P08482); experiment: qHTS Assay for Antagonists of Acetylcholine Muscarinic M1 Receptor: Measurement of IP-One Response (AID 944); details: CHO-M1 cells, IP-One HTRF, antagonist mode; series mostly up to 46.1 µM; note: potency is the fitted concentration of half-maximal effect; nearly all actives have a fitted effect of over 75% in size
[6] = qHTS Assay for Lipid Storage Modulators (AID 1519; calls by dose curve); details: Drosophila S3 cells, BODIPY lipid droplet/cell ratio, laser cytometry, cells loaded with oleic acid; activity change, negative = inhibition: at 57.5 µM (top of the series) unless noted
In short: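 Cells seeded at 5,000 per well were treated with compounds over a concentration series and loaded with oleic acid (400 uM, as added). Lipid droplet fluorescence (488 nm excitation, 500-530 nm channel) was read by laser-scanning cytometry and normalized to 20 uM Triacsin C.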

[7] = biological target: Endonuclease 4 (Escherichia coli (strain K12)) (UniProt P0A6C1); experiment: Counterscreen for APE1 Inhibitors: qHTS Validation Assay for Inhibitors of Endonuclease IV (AID 1708); note: potency is the fitted concentration of half-maximal effect; details: E. coli endonuclease IV, DNA cleavage fluorescence; series mostly up to 57.1 µM
In short: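 Conditions: 2 nM enzyme, 50 nM TAMRA/BHQ-2 substrate, pH 7.5 Tris buffer with 2 mM MgCl2, RT. Compound preincubation 15 min; readout three fluorescence reads 60 s apart, third-minus-first.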

[8] = qHTS for differential inhibitors of proliferation of Plasmodium falciparum line Dd2 (AID 1882); details: Potency: Plasmodium falciparum Dd2 proliferation inhibition; series mostly up to 28.7 µM; note: nearly all actives have a fitted effect of over 65% in size
In short: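 SYBR Green DNA fluorescence (ex 485, em 535 nm) after overnight lysis quantifies parasite growth; compound exposure lasted 72 h at 37 C on infected red cells at 2.5% hematocrit, 0.3% parasitemia (final). Artemisinin 0.29 uM and vehicle wells define normalization.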

[9] = qHTS for differential inhibitors of proliferation of Plasmodium falciparum line W2 (AID 1883); details: Potency: Plasmodium falciparum W2 proliferation inhibition; series mostly up to 28.7 µM;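 note: parasites grown with compound for 72 h before lysis and staining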
[10] = qHTS for differential inhibitors of proliferation of Plasmodium falciparum line HB3 (AID 1886); details: Potency: Plasmodium falciparum HB3 proliferation inhibition; series mostly up to 28.7 µM;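 note: parasites grown with compound for 72 h before SYBR Green readout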
[11] = qHTS Validation Assay to Find Inhibitors of Chronic Active B-Cell Receptor Signaling (AID 485345; active = well fitted curve in the direction sought with a large enough effect in the main read-out, with a control signal flat, not every such curve was filed as active; inconclusive = small, poorly fitted or top-dose-only effect, or effect the other way, or a change in a side signal; inactive = no such curve, though single readings can be large or run the other way); details: ABC-DLBCL cells, chronic BCR signaling reporter; activity change: CBG luciferase, at 46.1 µM (top of the series)
In short: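 TMD8 ABC-DLBCL cells stably carrying doxycycline-inducible IkappaBalpha–green luciferase fusion plus unfused red luciferase; compounds 46 uM to 3 nM, 4 h at 37C with doxycycline. Corrected green/red luminescence ratio normalized to 10 uM MG-132 and basal cell wells; curves fitted.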

[12] = Quantitative high throughput screen for delayed death inhibitors of the malarial parasite plastid, 48 hour incubation (AID 488752); details: Plasmodium falciparum growth; series mostly up to 28.7 µM; note: nearly all actives have a fitted effect of over 65% in size
In short: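 One-generation (48 h) growth assay: a decrease in luciferase signal from an integrated reporter in P. falciparum-infected red cells (0.1% parasitemia, 2% hematocrit) after compound exposure at 37 C indicates parasite inhibition.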

[13] = biological target: Thioredoxin reductase 1, cytoplasmic (Rattus norvegicus) (UniProt O89049); experiment: qHTS Assay for Inhibitors of Mammalian Selenoprotein Thioredoxin Reductase 1 (TrxR1) (AID 488773); details: purified TrxR1 enzyme activity; Potency: inhibition; series mostly up to 57.1 µM;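 note: drop in NADPH fluorescence over an 8 min run after selenite addition; nearly all actives have a fitted effect of over 40% in size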
In short: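 Inhibition is scored from the loss of NADPH fluorescence between first and last reads of an 8-min kinetic run. Selenite (400 uM) was the substrate, added after 15 min compound preincubation at room temperature.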

[14] = biological target: Chromobox protein homolog 1 (Homo sapiens) (UniProt P83916); experiment: qHTS Validation Assay for Inhibitors of HP1-beta Chromodomain Interactions with Methylated Histone Tails (AID 488953); details: HP1-beta chromodomain / methylated histone peptide binding assay; series mostly up to 114 µM;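 note: loss of AlphaScreen luminescence from HP1-beta binding biotinylated H3K9me3 peptide; nearly all actives have a fitted effect of over 50% in size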
In short: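 AlphaScreen proximity signal from streptavidin donor and nickel chelate acceptor beads (final 10 ug/mL) after 30 min dark incubation. Compounds had 30 min at room temperature with preformed complex of 50 nM HP1-beta and 50 nM b-H3(1-18)K9me3 in PBS pH 7.4 with 0.01% Tween-20.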

[15] = Validation screen for small molecules that induce genotoxicity in human embryonic kidney (HEK293T) cells expressing luciferase-tagged ELG1 (AID 493106); details: luminescence; series mostly up to 46.1 µM
In short: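 ELG1-luciferase reporter readout (ONE-Glo, 30 min, room temperature) after 16 hr compound treatment at 37 °C of HEK293T cells at 2,000 per well. Rising luminescence flags genotoxic stress.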

[16] = biological target: ATPase family AAA domain-containing protein 5 (Homo sapiens) (UniProt Q96QE3); experiment: Validation screen for small molecules that inhibit ELG1-dependent DNA repair in human embryonic kidney (HEK293T) cells expressing luciferase-tagged ELG1 (AID 493107); details: HEK293T ELG1-luciferase level, luminescence, 5-fluorouridine co-treatment, 16 h; activity change, negative = decrease: at 46.1 µM (top of the series);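 note: inhibitors lower the ELG1-luciferase luminescence signal; nearly all actives have a fitted effect of over 70% in size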
In short: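 Luciferase read-out, ONE-Glo, 30 min at room temperature, follows 16 h co-exposure at 37 C of compound and the DNA-damaging agent 5-fluorouridine. Cells: HEK293T with ELG1-luciferase fusion, 2,000 per well, DMSO as vehicle.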

[17] = HTS Assay for Allosteric Antagonists of the Human D2 Dopamine Receptor: Hit Validation in HTRF (AID 624455); details: Cells stably expressing D1 dopamine receptor, inhibition mode; series mostly up to 46.1 µM;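 note: stable D1 dopamine receptor cell line scored for blocking the D1 response; potency is the fitted concentration of half-maximal effect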
In short: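 Inhibition of the D1-mediated response was measured by HTRF. Cells used were a line stably expressing the D1 dopamine receptor.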

[18] = biological target: N-terminal Xaa-Pro-Lys N-methyltransferase 1 (Homo sapiens) (UniProt Q9BV86); experiment: qHTS Assay for Inhibitors of N-terminal methyltransferase 1 (NTMT1): LOPAC validation of the NTMT1 SAHH-coupled ThioGlo3 Assay (AID 1347143); details: recombinant NTMT1, SAHH-coupled ThioGlo3 fluorescence; series mostly up to 114 µM;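 note: SAH from peptide methylation measured as thiol fluorescence via SAHH coupling and ThioGlo3; potency is the fitted concentration of half-maximal effect; nearly all actives have a fitted effect of over 70% in size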
In short: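 Steps: dispense 125nM NTMT1; pin-transfer test compounds at several concentrations, with 1uM RCC1-6 peptide as control; incubate 1 min; start with reagent holding 100uM SAM, 10uM SAHH, 15uM ThioGlo3; read at 0 and 30 min.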

[19] = Primary qHTS to identify inhibitors of SARS-CoV-2 cell entry (AID 1645846; calls by dose curve; note: nearly all actives have a fitted effect of over 45% in size); details: SARS-CoV-2 pseudovirus cell entry assay, luminescence; activity change, negative = inhibition: at 57.1 µM (top of the series); series mostly up to 57.1 µM
In short: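 Entry measured by luciferase signal 48 h after adding SARS-CoV-2-S pseudotyped MLV particles to HEK293-ACE2 cells preincubated 1 h with compounds. Normalisation: bald particles and spike particles.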

[20] = Primary qHTS for inhibitors of nuclear receptor binding SET domain protein 2 (NSD2) in an RCH-ACV wild type WT cells (2C) (AID 1645877); details: RCH-ACV (leukaemia line) NSD2 WT (2C) viability, CellTiter-Glo, 72 h; series mostly up to 44.9 µM; note: nearly all actives have a fitted effect of over 70% in size
Tags give direction and shape of the fitted curve.

Sequence of UniProt P08482 (P08482 whole entry, looked up): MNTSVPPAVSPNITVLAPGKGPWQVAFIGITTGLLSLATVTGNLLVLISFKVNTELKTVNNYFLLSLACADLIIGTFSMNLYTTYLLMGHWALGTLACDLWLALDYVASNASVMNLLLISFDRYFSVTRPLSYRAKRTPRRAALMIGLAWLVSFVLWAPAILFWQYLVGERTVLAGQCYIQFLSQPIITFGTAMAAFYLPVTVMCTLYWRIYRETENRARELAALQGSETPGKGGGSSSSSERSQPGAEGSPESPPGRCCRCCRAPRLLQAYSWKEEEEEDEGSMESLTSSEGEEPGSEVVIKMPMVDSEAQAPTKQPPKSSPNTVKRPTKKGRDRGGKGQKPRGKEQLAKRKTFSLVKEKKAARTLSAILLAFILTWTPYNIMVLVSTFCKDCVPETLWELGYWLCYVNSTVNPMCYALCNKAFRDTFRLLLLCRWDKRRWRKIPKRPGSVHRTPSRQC
Sequence of UniProt Q96QE3 (Q96QE3 whole entry, looked up, the tested form may be a part): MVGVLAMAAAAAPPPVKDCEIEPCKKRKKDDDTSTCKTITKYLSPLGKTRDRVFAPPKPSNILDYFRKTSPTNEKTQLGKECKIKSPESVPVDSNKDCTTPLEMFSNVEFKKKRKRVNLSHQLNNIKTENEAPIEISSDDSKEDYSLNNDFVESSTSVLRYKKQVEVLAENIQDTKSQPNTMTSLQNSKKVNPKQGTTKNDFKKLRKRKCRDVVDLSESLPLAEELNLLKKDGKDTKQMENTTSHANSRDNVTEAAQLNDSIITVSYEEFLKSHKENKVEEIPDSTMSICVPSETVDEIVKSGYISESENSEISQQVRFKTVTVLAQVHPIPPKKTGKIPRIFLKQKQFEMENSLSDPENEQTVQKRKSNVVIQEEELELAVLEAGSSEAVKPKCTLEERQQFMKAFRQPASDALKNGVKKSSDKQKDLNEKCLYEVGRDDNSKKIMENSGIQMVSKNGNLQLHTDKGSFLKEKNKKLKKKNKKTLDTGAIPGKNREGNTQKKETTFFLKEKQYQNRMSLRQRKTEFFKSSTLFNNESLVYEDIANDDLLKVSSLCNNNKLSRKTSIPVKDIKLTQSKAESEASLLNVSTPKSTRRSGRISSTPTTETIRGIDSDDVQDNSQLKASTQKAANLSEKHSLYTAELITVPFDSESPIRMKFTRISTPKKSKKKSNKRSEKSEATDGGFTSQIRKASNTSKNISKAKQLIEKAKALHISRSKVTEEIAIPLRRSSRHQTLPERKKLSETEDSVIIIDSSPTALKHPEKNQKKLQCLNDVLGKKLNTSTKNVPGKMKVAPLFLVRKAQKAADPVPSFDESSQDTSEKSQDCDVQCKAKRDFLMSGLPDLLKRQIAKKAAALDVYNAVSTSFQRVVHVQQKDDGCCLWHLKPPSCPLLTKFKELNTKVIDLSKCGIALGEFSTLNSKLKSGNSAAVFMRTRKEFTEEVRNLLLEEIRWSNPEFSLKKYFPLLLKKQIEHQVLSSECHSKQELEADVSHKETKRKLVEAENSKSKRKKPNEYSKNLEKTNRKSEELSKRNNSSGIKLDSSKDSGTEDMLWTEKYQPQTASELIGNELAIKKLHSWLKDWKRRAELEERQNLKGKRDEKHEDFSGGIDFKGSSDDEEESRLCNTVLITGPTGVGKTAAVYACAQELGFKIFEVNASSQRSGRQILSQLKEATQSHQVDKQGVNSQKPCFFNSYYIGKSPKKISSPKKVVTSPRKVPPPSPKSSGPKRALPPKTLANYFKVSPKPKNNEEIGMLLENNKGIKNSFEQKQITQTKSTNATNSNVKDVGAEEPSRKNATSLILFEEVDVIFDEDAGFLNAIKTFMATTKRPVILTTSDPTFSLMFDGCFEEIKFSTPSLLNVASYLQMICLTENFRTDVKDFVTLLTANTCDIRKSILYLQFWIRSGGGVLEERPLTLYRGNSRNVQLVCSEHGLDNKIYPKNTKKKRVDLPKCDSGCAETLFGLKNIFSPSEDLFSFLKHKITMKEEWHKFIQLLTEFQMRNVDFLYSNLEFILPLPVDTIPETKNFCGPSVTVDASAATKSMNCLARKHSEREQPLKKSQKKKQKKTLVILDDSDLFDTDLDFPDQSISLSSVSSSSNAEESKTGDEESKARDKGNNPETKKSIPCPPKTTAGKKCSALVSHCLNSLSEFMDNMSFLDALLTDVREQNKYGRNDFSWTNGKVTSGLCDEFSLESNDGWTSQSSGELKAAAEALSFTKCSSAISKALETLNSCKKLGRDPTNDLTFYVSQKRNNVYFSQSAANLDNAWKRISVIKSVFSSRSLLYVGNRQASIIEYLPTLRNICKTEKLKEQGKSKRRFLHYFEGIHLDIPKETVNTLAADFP
Sequence of UniProt P83916 (P83916 whole entry, looked up): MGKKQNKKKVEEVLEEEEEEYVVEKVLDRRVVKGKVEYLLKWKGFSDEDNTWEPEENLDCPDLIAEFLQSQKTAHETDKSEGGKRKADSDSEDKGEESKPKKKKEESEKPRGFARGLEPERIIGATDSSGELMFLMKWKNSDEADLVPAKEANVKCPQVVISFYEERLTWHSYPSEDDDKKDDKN
Sequence of UniProt O89049 (O89049 whole entry, looked up): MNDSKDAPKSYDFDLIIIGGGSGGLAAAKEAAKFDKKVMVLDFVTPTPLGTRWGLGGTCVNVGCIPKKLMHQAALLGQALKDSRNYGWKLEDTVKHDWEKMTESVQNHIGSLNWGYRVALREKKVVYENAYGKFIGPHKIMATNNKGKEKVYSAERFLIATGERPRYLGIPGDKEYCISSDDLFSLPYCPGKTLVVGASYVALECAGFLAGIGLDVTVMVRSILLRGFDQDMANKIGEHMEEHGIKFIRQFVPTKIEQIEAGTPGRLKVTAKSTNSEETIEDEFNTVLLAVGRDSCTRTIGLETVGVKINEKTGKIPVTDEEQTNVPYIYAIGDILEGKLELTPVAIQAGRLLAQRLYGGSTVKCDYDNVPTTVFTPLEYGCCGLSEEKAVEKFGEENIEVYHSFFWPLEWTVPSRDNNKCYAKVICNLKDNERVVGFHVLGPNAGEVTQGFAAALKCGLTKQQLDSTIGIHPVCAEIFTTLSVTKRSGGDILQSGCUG
Sequence of UniProt Q9BV86 (Q9BV86 whole entry, looked up): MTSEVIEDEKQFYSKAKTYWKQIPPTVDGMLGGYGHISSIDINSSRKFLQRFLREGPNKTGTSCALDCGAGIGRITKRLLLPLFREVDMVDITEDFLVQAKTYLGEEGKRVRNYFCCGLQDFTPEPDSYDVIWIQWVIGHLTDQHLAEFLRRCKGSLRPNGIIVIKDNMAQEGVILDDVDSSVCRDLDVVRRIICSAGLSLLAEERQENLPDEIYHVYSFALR
Sequence of UniProt P04150 (P04150 whole entry, looked up, the tested form may be a part): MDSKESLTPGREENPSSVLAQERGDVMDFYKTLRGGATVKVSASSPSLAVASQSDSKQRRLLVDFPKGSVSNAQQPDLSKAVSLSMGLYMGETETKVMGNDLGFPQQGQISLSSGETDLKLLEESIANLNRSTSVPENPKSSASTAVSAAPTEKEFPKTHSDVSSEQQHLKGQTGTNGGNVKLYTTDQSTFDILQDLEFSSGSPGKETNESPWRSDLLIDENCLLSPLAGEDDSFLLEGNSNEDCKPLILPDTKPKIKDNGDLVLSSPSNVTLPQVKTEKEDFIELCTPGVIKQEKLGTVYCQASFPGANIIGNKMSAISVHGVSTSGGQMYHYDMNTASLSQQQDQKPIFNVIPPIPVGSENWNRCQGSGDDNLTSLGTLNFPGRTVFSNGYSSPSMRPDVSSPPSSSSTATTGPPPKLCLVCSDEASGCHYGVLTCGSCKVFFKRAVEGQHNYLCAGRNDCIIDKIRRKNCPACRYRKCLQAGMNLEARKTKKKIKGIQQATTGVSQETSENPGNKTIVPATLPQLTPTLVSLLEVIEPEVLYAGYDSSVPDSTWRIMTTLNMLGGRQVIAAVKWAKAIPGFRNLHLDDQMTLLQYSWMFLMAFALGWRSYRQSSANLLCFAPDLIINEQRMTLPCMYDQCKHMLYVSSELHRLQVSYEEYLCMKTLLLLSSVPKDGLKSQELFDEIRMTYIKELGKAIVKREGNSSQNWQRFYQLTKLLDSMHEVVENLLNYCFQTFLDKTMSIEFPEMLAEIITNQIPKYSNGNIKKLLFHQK

With `CCCN1CCO[C@@H]2c3cc(O)ccc3OC[C@H]21` the Potency [1] was inconclusive: 42.5 µM [single point], the Potency [2] was inconclusive: 2 nM [inhibitor, full curve, poor fit] and inactive and the activity change, negative = inhibition [3] was inconclusive: -7.78% [phenotype inactive] and inconclusive: -2.17% [phenotype inactive]. For the same compound, the Potency [4] was inconclusive: 39.8 nM [inhibitor, full curve, poor fit] and inconclusive: 17.8 nM [inhibitor, full curve, poor fit], the Potency [5] was inconclusive: 7.08 µM [inhibitor, partial curve, poor fit] and the activity change, negative = inhibition [6] was inconclusive: 2.27%. The Potency [7] was inconclusive: 5.62 µM [inhibitor, full curve, poor fit], the Potency [8] was “inactive” and the Potency [9] was “inactive”. The Potency [10] was “inactive”, the Potency [11] was “inactive” and the Potency [12] was “inactive”. For the same compound, the Potency [13] was “inactive”, the Potency [14] was “inactive” and the Potency [15] was “inactive”. The Potency [16] was “inactive”, the Potency [17] was inconclusive: 6.51 µM [inhibitor, single point] and the Potency [18] was inconclusive: 56.2 µM [inhibitor, partial curve]. For the same compound, the Potency [19] was “inactive” and the Potency [20] was “inactive”.
